About 2,200 (0.71%) of roughly 310,000 compounds showed an effect of 50% or more. Effects have a minus sign here. The list shows a part of the results.

Chain of human ether-à-go-go-related gene (hERG) potassium channel (Q12809 whole entry, looked up): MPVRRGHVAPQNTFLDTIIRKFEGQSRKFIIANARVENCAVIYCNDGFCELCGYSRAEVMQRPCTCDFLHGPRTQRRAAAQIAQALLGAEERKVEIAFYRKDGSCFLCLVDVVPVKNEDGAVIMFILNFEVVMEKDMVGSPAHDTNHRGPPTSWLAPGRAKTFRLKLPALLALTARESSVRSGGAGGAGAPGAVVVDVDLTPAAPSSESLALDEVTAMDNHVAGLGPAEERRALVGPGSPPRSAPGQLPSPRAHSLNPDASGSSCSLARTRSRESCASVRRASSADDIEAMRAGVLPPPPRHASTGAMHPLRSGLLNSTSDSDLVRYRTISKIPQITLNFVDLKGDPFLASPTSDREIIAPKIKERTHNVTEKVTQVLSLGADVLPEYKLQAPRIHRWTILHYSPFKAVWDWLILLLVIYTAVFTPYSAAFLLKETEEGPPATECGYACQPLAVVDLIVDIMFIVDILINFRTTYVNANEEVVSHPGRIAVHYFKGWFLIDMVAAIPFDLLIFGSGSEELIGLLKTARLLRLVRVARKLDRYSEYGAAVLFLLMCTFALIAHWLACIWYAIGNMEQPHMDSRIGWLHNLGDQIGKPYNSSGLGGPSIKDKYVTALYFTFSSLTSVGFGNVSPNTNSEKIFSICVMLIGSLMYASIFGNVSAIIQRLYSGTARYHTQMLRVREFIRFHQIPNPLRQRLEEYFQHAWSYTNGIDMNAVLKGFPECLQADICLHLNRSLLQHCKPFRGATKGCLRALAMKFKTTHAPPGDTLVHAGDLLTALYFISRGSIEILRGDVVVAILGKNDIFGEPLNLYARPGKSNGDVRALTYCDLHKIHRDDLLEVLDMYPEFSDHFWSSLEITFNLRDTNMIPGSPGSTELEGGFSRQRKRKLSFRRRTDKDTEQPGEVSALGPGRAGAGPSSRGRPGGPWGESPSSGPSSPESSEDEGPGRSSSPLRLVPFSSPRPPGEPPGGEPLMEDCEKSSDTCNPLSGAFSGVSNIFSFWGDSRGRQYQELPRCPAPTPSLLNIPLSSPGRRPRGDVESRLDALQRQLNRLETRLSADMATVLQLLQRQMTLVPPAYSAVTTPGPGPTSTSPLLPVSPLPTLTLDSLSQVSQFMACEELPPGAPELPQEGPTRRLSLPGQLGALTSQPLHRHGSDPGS

The assay addresses human ether-à-go-go-related gene (hERG) potassium channel (human, UniProt Q12809). In words: primary screen, population patch clamp on CHO cells stably expressing hERG.
Regarding `CCc1nc2scc(-c3ccc(C)cc3)c2c(=O)n1N`, the “hERG current change (%, negative = inhibition) at 1uM” value is 10.4%.

As for `CC(C)C(NC(=O)OCc1ccccc1)C(=O)OCC(=O)N1C(C)CCCC1C` (stereo not shown), the “hERG current change (%, negative = inhibition) at 1uM” value was 9.04%.

Regarding `CCOc1ccc(CCNC(=O)c2cccc(N3CCCC3=O)c2)cc1OCC`, the “hERG current change (%, negative = inhibition) at 1uM” value is reported as 5.16%. To `O=C(CSc1nc2ccccc2nc1N1CCCCC1)N1CCN(c2ccccc2)CC1` belongs 10.2%; to `COc1cc(/C=C2\CC/C(=C\c3cc(OC)c(OC)c(OC)c3)C2=O)cc(OC)c1OC`, 16.9%; to `COc1ccc(-c2nc(C(=O)NCC3CCCO3)cc3c2[nH]c2ccccc23)cc1` (stereo not shown), 2.28%. The result for `COc1ccc(OC)c2c1CCC2=O` reads 15.1%; that for `COc1cccc(/C=C2\SC(=S)N(C(Cc3ccccc3)C(=O)O)C2=O)c1` (stereo not shown), 22.6%; that for `CCN(CC(=O)NCc1ccc(F)cc1)C(=O)Cc1ccc(OC)cc1`, -37.8%.

`O=C(COC(=O)CCCNC(=O)c1ccc(Cl)cc1)NCc1ccccc1Cl`: the “hERG current change (%, negative = inhibition) at 1uM” value was -2.65%. Regarding `N#C/C(=C/c1ccc(OCc2ccc(C(=O)O)cc2)c(Br)c1)c1cccc(F)c1`, the “hERG current change (%, negative = inhibition) at 1uM” value was determined as 15.6%.

For `CCOC(=O)N1CCN(C(=O)CNC(=O)c2ccc(Br)cc2)CC1`, the “hERG current change (%, negative = inhibition) at 1uM” value is -16.1%. For the compound `COc1ccccc1-c1ccc(NC2CCCC2)nn1`, the “hERG current change (%, negative = inhibition) at 1uM” value is recorded as 3.71%.

In the case of `Cc1ccc(S(=O)(=O)N(C)C)cc1NC(=O)COC(=O)C1=COCCO1`, the “hERG current change (%, negative = inhibition) at 1uM” value stood at 4.26%. As for `Cc1ccccc1CC(=O)c1ccc(O)c(C)c1O`, the “hERG current change (%, negative = inhibition) at 1uM” value is 5.56%. For the compound `CCn1cc(CNC(=O)CC2C(=O)NCCN2CC(c2ccccc2)c2ccccc2)cn1` (stereo not shown), the “hERG current change (%, negative = inhibition) at 1uM” value was 2.63%. The result for `COc1ccc(Cc2nc3ccc(C(=O)NC(C)c4cnn(C)c4)cc3o2)cc1` (stereo not shown) reads 3.16%. The result for `CN1C(=O)/C(=C2\SC(=S)N(C(CCC(=O)O)C(=O)O)C2=O)c2ccccc21` (stereo not shown) reads 11.6%. Take `Cc1nn(-c2ccccc2)c2nc(-c3ccncc3)cc(C(=O)NCc3ccco3)c12`: the “hERG current change (%, negative = inhibition) at 1uM” value is reported as -12.1%.

On to `COc1cccc(-n2c(SC)nnc2-c2cnccn2)c1`, for which the “hERG current change (%, negative = inhibition) at 1uM” value was -0.821%. Regarding `CCN(CC)C(=O)CN(c1cc2c(cc1OC)oc1ccccc12)S(=O)(=O)c1ccc(C)cc1`, the “hERG current change (%, negative = inhibition) at 1uM” value came out at 0.322%. The result for `Cc1cccc(N2CCN(C(=O)C(C)n3nc(C)n4c(cc5occc54)c3=O)CC2)c1C` (stereo not shown) reads 4.12%; that for `CCNC(=O)CSc1nnc(-c2cccc(S(=O)(=O)N(CC)CC)c2)n1CCc1ccccc1`, -8.13%; that for `N#Cc1ccc(COC(=O)c2ccc3c(c2)OCO3)cc1`, 10.1%. In the case of `CCOc1ccc(Oc2cc(NC(=O)c3ccco3)cc([N+](=O)[O-])c2)cc1`, the “hERG current change (%, negative = inhibition) at 1uM” value was 13.1%. In the case of `CN(CC(=O)Nc1ccc(Cl)cc1)C(=O)C1=COCCO1`, the “hERG current change (%, negative = inhibition) at 1uM” value was 10.4%. With `O=S(=O)(NCCc1csc(-c2cccnc2)n1)c1cc(F)ccc1F`, the “hERG current change (%, negative = inhibition) at 1uM” value worked out at 10.4%.

In the case of `C/C(=N/NC(=O)c1ccccc1)c1ccc(NC(=O)C(F)(F)F)cc1`, the “hERG current change (%, negative = inhibition) at 1uM” value turned out to be 9.45%. For `COc1ccc(CCNC(=O)c2cn3ccc(C)cc3n2)cc1OC`, the “hERG current change (%, negative = inhibition) at 1uM” value is 8.16%. Regarding `Cc1ccccc1CN1CCc2c(OCC(=O)N3CCCCC3)cccc2C1=O`, the “hERG current change (%, negative = inhibition) at 1uM” value amounted to 9.63%. For `Brc1ccc(-c2nc(N/N=C/c3cccnc3)c3ccccc3n2)cc1`, the “hERG current change (%, negative = inhibition) at 1uM” value was found to be 7.44%.

Take `Cn1c(N)c(C(=O)COC(=O)c2nc(Cl)ccc2Cl)c(=O)n(C)c1=O`: the “hERG current change (%, negative = inhibition) at 1uM” value is on record as 2.82%. Turning to `Cn1c(SCc2ccc(F)cc2)nnc1-c1ccncc1`, the “hERG current change (%, negative = inhibition) at 1uM” value stood at 13.8%. `CCn1ncc(C2=NOC(C(=O)Nc3cccnc3)C2)c1C` (stereo not shown): the “hERG current change (%, negative = inhibition) at 1uM” value was 3.33%. Consider `COc1cccc(C2CC(=O)Nc3n[nH]c(-c4ccccc4)c32)c1OC` (stereo not shown), for which the “hERG current change (%, negative = inhibition) at 1uM” value amounted to 5.66%. With `COc1ccc(NC(=O)Nc2c[nH]c(=O)[nH]c2=O)cc1OC`, the “hERG current change (%, negative = inhibition) at 1uM” value came out at 14.6%. With `Cc1ccc2cccc(OCc3ccc(F)cc3)c2n1`, the “hERG current change (%, negative = inhibition) at 1uM” value came out at 7.62%.

Take `NS(=O)(=O)c1ccc(CNC(=O)c2csc3c2CCCC3)cc1`: the “hERG current change (%, negative = inhibition) at 1uM” value came to 11%. To `COc1cc(C(=O)NCc2ccccn2)ccc1OCc1c(C)noc1C` belongs 5.58%. Consider `O=C(Nc1ccc(Cl)c([N+](=O)[O-])c1)Nc1nc2ccccc2s1`, for which the “hERG current change (%, negative = inhibition) at 1uM” value came to 11.5%. Consider `CC(C(=O)N1CCCc2c1c(=O)oc1ccc(O)cc21)N1CCc2ccccc2C1` (stereo not shown), for which the “hERG current change (%, negative = inhibition) at 1uM” value is -12.8%. Consider `Cn1nccc1C(=O)N1CCN(c2ccc(F)cc2)CC1`, for which the “hERG current change (%, negative = inhibition) at 1uM” value was determined as 11.8%. To `CCC1(c2ccc(F)cc2)NC(=O)N(CC(=O)N2CCN(S(=O)(=O)c3ccc(C)cc3)CC2)C1=O` (stereo not shown) belongs 4.93%; to `CC1CN(c2oc(COc3ccc(Cl)cc3Cl)nc2C#N)CC(C)O1` (stereo not shown), 16.5%. For `COc1ccc(CCNC(=O)C2CC(=O)N(c3ccc(F)cc3)C2)cc1OC` (stereo not shown), the “hERG current change (%, negative = inhibition) at 1uM” value is recorded as 13.3%. The result for `CC(C)CN1CCC(=O)N([C@H](COc2ccccc2)Cc2ccccc2)CC1` reads -29.8%; that for `COc1ccc(S(=O)(=O)Oc2cccc(/C=N/N=C3/NC(=O)C(CC(=O)O)S3)c2)cc1` (stereo not shown), 11.7%. As to `[O-]C1=N/[N+](=C/c2ccccc2)CC1`, the “hERG current change (%, negative = inhibition) at 1uM” value was determined as 6.43%. On to `Cc1ccc(C)n1-c1sc2c(c1C#N)CCC(C)C2` (stereo not shown), for which the “hERG current change (%, negative = inhibition) at 1uM” value amounted to 12.5%.

On to `CCCn1nc(C(=O)NCC2COc3ccccc3O2)c2ccccc2c1=O` (stereo not shown), for which the “hERG current change (%, negative = inhibition) at 1uM” value is -0.0249%.

For the compound `Cc1cccnc1Nc1nc(-c2ccc(F)cc2)cs1`, the “hERG current change (%, negative = inhibition) at 1uM” value is given as 12.9%.

In the case of `COC(CN1C(=O)C(=O)/C(=C(/O)c2ccccc2)C1c1ccccn1)OC` (stereo not shown), the “hERG current change (%, negative = inhibition) at 1uM” value was 8.89%.

With `COc1ccc(N(CC(=O)NCCC2=CCCCC2)S(=O)(=O)c2ccccc2)cc1OC`, the “hERG current change (%, negative = inhibition) at 1uM” value worked out at 10.6%. `CC(C)CN1C(=O)c2ccc(C(=O)Nc3ccncc3)cc2C1=O`: the “hERG current change (%, negative = inhibition) at 1uM” value is -9.26%.

Take `COC(=O)c1cc(C(=O)NCCCN2CCOCC2)cc([N+](=O)[O-])c1.Cl`: the “hERG current change (%, negative = inhibition) at 1uM” value is recorded as 2.7%. For the compound `COC(=O)c1ccc([N+](=O)[O-])cc1N1C(=O)C2C3CCC(C3)C2C1=O` (stereo not shown), the “hERG current change (%, negative = inhibition) at 1uM” value turned out to be 17.9%. `CCC1CCCCN1C(=O)CSc1nnc(-c2cccs2)o1` (stereo not shown): the “hERG current change (%, negative = inhibition) at 1uM” value is listed as -4.78%.

Turning to `CCCCNC(=O)c1sc2nc(C)cc(COC)c2c1-n1cccc1`, the “hERG current change (%, negative = inhibition) at 1uM” value was -1.25%. Regarding `COc1ccnc(Oc2ccc(F)cc2)c1C(=O)N/C=N/OCc1ccccc1`, the “hERG current change (%, negative = inhibition) at 1uM” value turned out to be 0.714%. To `CCOc1ccc(C2C(C(C)=O)=C(O)C(=O)N2CCc2c[nH]c3ccccc23)cc1` (stereo not shown) belongs 8.09%. The result for `O=C(COC(=O)C12CC3CC(CC(C3)C1)C2)NCCCc1ccccc1` reads 12.3%; that for `COc1cccc(C(=O)N/N=C2\SCC(=O)N2Cc2ccc3c(c2)OCO3)c1`, -7.96%. In the case of `COc1ccc(C(=O)OCC(=O)C(C)(C)C)cc1S(=O)(=O)N(C)CCc1cccnc1`, the “hERG current change (%, negative = inhibition) at 1uM” value worked out at 9.52%. To `CCN(C(=O)COC(=O)CSc1ccccc1)c1c(N)n(Cc2ccccc2)c(=O)[nH]c1=O` belongs 7.76%; to `CCCN(CCC)S(=O)(=O)c1cc(CN2C(=O)c3cccnc3C2=O)ccc1OC`, 12.4%. To `COCCCNC(=O)Cn1nnc(-c2ccccc2NC(=O)c2ccc(F)cc2)n1` belongs 13.7%; to `Cc1cccc(C(=O)N2CCC(n3nnc4cc(F)ccc43)CC2)c1`, 1.25%; to `O=C(O)C1C2C=CC(C2)C1C(=O)NCCCN1CCOCC1` (stereo not shown), 14.1%.

As for `COc1cccc(/C=C/C(=O)NNC(=O)c2ccco2)c1OC`, the “hERG current change (%, negative = inhibition) at 1uM” value amounted to 5.54%. For `Cc1ccc(SC[C@H](Cc2ccccc2)N2CC[C@@H](NC(=O)OCc3ccccc3)CCC2=O)cc1`, the “hERG current change (%, negative = inhibition) at 1uM” value is reported as 2.6%. As for `Cc1cc(C)cc(Oc2nc3c(C)cccn3c(=O)c2/C=C(\C#N)C(=O)NC2CCS(=O)(=O)C2)c1` (stereo not shown), the “hERG current change (%, negative = inhibition) at 1uM” value came to 5.75%. To `CC(C)(C)NC(=S)N1CCC(C(=O)c2ccc(Cl)cc2)CC1` belongs 14.3%. As for `O=C(OCC(=O)N1CCOCC1)c1ccc(Br)cc1`, the “hERG current change (%, negative = inhibition) at 1uM” value was 15.8%. `O=C(Nc1ccc(C(=O)O)cc1)/C(=C\c1ccccc1)NC(=O)c1ccc(Br)cc1`: the “hERG current change (%, negative = inhibition) at 1uM” value was 9.2%. On to `CCOc1ccc(S(=O)(=O)NCCC(=O)NCC(c2cccs2)N(C)C)cc1` (stereo not shown), for which the “hERG current change (%, negative = inhibition) at 1uM” value is listed as 6.25%. `Cc1ccc(C2NC(c3ccc(C)cc3)C([N+](=O)[O-])C(C)(C)C2[N+](=O)[O-])cc1` (stereo not shown): the “hERG current change (%, negative = inhibition) at 1uM” value is -16.3%. As to `Cc1cc(C)n2c(SCC(=O)N(C)C3CCCCC3)nnc2n1`, the “hERG current change (%, negative = inhibition) at 1uM” value was 11.7%. As to `CC(C)[C@]1(c2ccc(Cl)cc2)ON(c2ccccc2C(F)(F)F)C1=O`, the “hERG current change (%, negative = inhibition) at 1uM” value is -3%. As to `CC(=O)NS(=O)(=O)c1ccc(NS(=O)(=O)c2ccc(F)cc2)cc1`, the “hERG current change (%, negative = inhibition) at 1uM” value is recorded as 12.1%. `O=[N+]([O-])c1ccc(N/N=C\c2cccnc2)nc1`: the “hERG current change (%, negative = inhibition) at 1uM” value was 4.27%. As for `Cc1ccc(-n2c(Cl)c(Cl)nc(Cl)c2=O)cc1`, the “hERG current change (%, negative = inhibition) at 1uM” value worked out at 7.72%. Take `COc1nc(Nc2ccc(-c3nc4ccccc4o3)cc2)nc(N2CCOCC2)n1`: the “hERG current change (%, negative = inhibition) at 1uM” value came out at 7.79%. `COc1ccc(-c2cc(C(=O)Nc3ccccc3SC)no2)cc1`: the “hERG current change (%, negative = inhibition) at 1uM” value is recorded as 3.47%.

For `O=C(O)c1sccc1SCc1ccc(Cl)cc1Cl`, the “hERG current change (%, negative = inhibition) at 1uM” value was found to be 15.1%.

On to `COc1ccc(/C=N/Nc2ccc(C(=O)O)cc2)c(OC)c1OC`, for which the “hERG current change (%, negative = inhibition) at 1uM” value was 18.1%.

Source of the values: PMC4336329 (PLoS ONE, 2015).
